# Results taken from PMC4336329 (PLoS ONE, 2015).
# Among all 310,000 compounds or so, about 14,000 (4.5%) showed an effect of 50% or more. The effect is printed as a negative number. The list shows a part of the results.
# Target: human ether-à-go-go-related gene (hERG) potassium channel (human, UniProt Q12809)
# Test: primary screen, population patch clamp on CHO cells stably expressing hERG
# 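Further: peak tail current of the secondary pulse compared with the same well before compound.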
# Chain of human ether-à-go-go-related gene (hERG) potassium channel (Q12809 whole entry, looked up): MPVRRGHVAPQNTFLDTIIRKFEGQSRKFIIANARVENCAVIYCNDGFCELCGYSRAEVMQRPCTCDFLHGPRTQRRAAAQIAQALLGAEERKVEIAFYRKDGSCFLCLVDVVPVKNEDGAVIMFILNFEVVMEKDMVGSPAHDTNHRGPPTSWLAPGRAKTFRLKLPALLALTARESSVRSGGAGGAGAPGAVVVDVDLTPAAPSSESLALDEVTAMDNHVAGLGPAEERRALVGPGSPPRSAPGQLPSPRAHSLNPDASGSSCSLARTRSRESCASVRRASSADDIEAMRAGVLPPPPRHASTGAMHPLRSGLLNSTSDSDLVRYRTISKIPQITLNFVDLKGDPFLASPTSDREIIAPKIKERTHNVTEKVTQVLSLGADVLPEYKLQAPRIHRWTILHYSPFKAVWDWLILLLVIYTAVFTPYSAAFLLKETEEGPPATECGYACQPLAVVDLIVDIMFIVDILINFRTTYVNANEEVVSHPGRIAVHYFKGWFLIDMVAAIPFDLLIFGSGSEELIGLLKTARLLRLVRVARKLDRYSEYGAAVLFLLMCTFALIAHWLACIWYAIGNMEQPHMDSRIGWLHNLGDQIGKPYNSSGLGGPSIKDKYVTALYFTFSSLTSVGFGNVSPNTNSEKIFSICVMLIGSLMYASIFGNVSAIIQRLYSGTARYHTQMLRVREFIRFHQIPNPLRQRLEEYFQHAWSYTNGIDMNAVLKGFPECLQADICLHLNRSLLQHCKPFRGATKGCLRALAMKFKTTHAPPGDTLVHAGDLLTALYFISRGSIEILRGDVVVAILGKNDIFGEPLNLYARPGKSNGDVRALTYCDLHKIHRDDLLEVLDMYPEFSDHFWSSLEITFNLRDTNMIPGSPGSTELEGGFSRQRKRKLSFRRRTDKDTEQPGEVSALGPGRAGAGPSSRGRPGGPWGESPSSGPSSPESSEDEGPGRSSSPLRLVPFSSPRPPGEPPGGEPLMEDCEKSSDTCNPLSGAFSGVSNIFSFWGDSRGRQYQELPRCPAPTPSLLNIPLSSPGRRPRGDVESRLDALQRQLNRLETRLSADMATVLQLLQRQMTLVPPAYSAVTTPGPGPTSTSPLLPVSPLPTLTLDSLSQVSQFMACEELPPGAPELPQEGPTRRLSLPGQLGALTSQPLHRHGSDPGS
row,Compound,"hERG current change (%, negative = inhibition) at 10uM [%]"
1,COc1ccc(N(CCCN2C(=O)c3cccc4cccc(c34)C2=O)C(=O)c2cccc(OC)c2)cc1,20.1
2,Cc1cc2cc(C(c3nnnn3Cc3ccccc3)N3CCc4ccccc43)c(=O)[nH]c2cc1C (centres unmarked),-14.7
3,CNC(=S)NNC(=O)c1cn(C)nc1C,16.5
4,CCCCOC(=O)c1ccc(NC(=S)N2CCN(c3ncc4c(=O)c(C(=O)O)cn(CC)c4n3)CC2)cc1,11.2
5,O=C(NNC(=S)NCc1ccco1)c1cccs1,-2.16
6,C=CCn1c(=O)c2ccc(C(=O)NCc3ccccc3)cc2n(Cc2ccc(C)cc2)c1=O,12.1
7,CC(Sc1n[nH]c(N)n1)c1nc2scc(-c3cccs3)c2c(=O)[nH]1 (centres unmarked),0.709
8,Cc1ccccc1S(=O)(=O)Cc1ccc(C(=O)NCc2ccc(F)cc2)o1,-42
9,CS/C(N)=N/N=C/c1c(O)ccc2ccccc12,6.39
10,CC1(C)CC(CC(=O)Nc2nccs2)(c2ccccc2)CCO1 (centres unmarked),4.97
11,Cc1ccnc2nc(C(=O)Nc3nnc(-c4ccc(Cl)cc4)o3)nn12,4.54
12,CCCN(CC(=O)Nc1cc(Cl)cc(Cl)c1)CC(=O)Nc1ccc(F)c(F)c1F,-9.43
13,COc1ccc(N2CCN(C(=O)c3cn(Cc4ccccc4)nc3-c3cccnc3)CC2)cc1,-33.3
14,CCOC(=O)c1c(N)sc(C(N)=O)c1C,18.3
15,CCOC(=O)c1ccc(NC(=S)N(CCCN2CCCC(C)C2)Cc2ccco2)cc1 (centres unmarked),-70.9
16,CCc1ccc(NC(=S)Nc2cc(OC)c(NC(=O)C(C)C)cc2OC)cc1,5.84
17,CC(=O)N1N=C(c2ccc(Cl)cc2)OC1c1ccc(C(C)C)cc1 (centres unmarked),6.01
18,COc1ccc(C(C)(C)C)cc1NC(=O)CCCn1c(=O)oc2ccccc21,-21.1
19,CCc1nn2cc(C(=O)c3cc(Cl)ccc3O)cnc2c1-c1ccc(F)cc1,5.34
20,COC(=O)C(=Nc1ccccc1)/C(C(=O)C(=O)N(C)c1ccccc1)=C(\O)c1ccc(Cl)cc1,14.2
21,CCN1CCN(C(=O)c2sc3nc(C)nc(N4CCC(C)CC4)c3c2C)CC1,-8.16
22,COc1ccccc1NC(=O)Cc1csc(NC(=S)Nc2ccc(C)cc2)n1,1.94

row,Compound,"hERG current change (%, negative = inhibition) at 10uM [%]"
1,O=C(c1c(Cl)cccc1Cl)N1CCN(c2cccc3[nH]ccc23)CC1,22.3
2,COc1ccc(CNS(=O)(=O)c2ccc(NC(=O)N3CCCCC3)cc2)cc1,10.7
3,Cc1ccc[n+](CC(=O)N2CCCCC2)c1C.[Br-],6.73
4,CCc1cccc(C)c1NC(=O)C1CCN(C(=O)c2ccc([N+](=O)[O-])cc2)CC1,-48.2
5,COc1ccc(/C=C2\SC(=O)N=C2N)cc1,12.4
6,O=c1nc(N/N=C/C=C/c2ccccc2)cn[nH]1,18.8
7,COc1ccc2nc(C)cc(SCC(=O)NNC(=O)COc3cccc4ccccc34)c2c1,8.24
8,O=C(NCC(c1ccco1)N1CCN(c2ccccc2F)CC1)C1CCCCC1 (centres unmarked),-2.24
9,Cc1sc2ncnc(SCC(=O)N3CCN(C(=O)c4ccco4)CC3)c2c1C,-70.1
10,O=C(c1cccc(N2C(=O)C3C4C=CC(C4)C3C2=O)c1)N1CCN(c2ccccc2F)CC1 (centres unmarked),-15.6
11,O=C(COC(=O)Cc1ccccc1[N+](=O)[O-])NCC1CCCCC1,0.647
12,Cc1ccc(OCC(=O)OCC(=O)Nc2sccc2C(N)=O)cc1C,15
13,O/N=C/c1ccc(OCc2ccccc2F)c(Cl)c1,2.95
14,COc1cccc(CNC(=O)Cn2cc3c(n2)CCCC3)c1,4.5
15,Cc1nc(-c2ccncc2)nc(NCCNc2ccc(C(F)(F)F)cn2)c1Cl,0.868
16,Cc1ccc(OCC(=O)Nc2ccc(F)cc2)cc1,10.2
17,CCN(CC)C(=O)C1CCCN(Cc2nc(-c3cnccn3)no2)C1 (centres unmarked),0.902
18,COP(=O)(CC(=O)c1ccccc1)CC(=O)c1ccccc1,21.8
19,C/C(=N\NS(C)(=O)=O)c1ccccc1,12.6
20,COc1cc(C(=O)N2CCC(O)(c3ccccc3)CC2)cc(OC)c1OC,14.7
21,COc1cccc(C(=O)Nc2ccc(S(=O)(=O)Nc3nccc(C)n3)cc2)c1,17.9
22,COc1cccc(/C=N\NC(=O)c2ccc(C)nc2)c1,8.82
